This is an account of results in ChEMBL document CHEMBL4888484, “Replenishing the malaria drug discovery pipeline: Screening and hit evaluation of the MMV Hit Generation Library 1 (HGL1) against asexual blood stage Plasmodium falciparum ,using a nano luciferase reporter read-out” (2022).

Screen size: about 150,000 compounds; about 540 (0.36%) showed an effect of 50% or more. The list shows a part of the results.

The assay relates to Plasmodium falciparum. As to the kind of experiment: Primary screen in NF54 nanoGlo assay, in single point, at 2uM, 72h; a lower Z score goes with more inhibition. The assay is classed as functional, Erythrocyte. The settings on record: timepoint 72 hour.
`Cn1nncc1CN1CCC[C@H]1c1ccc(Br)c(F)c1`: the % Inhibition (commonly the drop in the measured response relative to a control, in per cent) is given as -7% and the Z score is reported as 0.97.
For `O=C1N[C@H]2C[C@@H](C(=O)NC[C@H]3O[C@H](CCOc4ccccc41)CC[C@@H]3O)N(Cc1ccc(Cl)c(F)c1)C2`, in that order: -7% and 0.9.
For `COc1ccc(NC(=O)N2CCCCC[C@@H]2CN2CCC(C)CC2)cc1`, in that order: -1% and 0.14.
In the same order, the values of `Cc1nnc(OC[C@H]2CCCCN2C)s1` are -15% and 2.12.
For the molecule `Cc1nccnc1CN1CCC[C@@]1(C)c1ccccc1`, the “% Inhibition” value is -10% and the Z score is listed as 1.97.
In the same order, the values of `Cc1cnn(CC(=O)N2CCCN(Cc3ccc(F)cc3)[C@H](C(C)C)C2)c1` are 8% and -1.17.
For `O=C(Nc1ccc(-n2ncc3ccccc32)cc1)NC1CCC(O)CC1` (centres undefined), in that order: -7% and 0.84.
In the same order, the values of `COc1ccc2c(c1)c(CN1CCC(C(=O)NCCN3CCCCC3)CC1)cn2C` are 7% and -1.06.
With `Cc1ccc(NC(=O)c2cc(N3CCCC3)ncn2)cc1F`, the “% Inhibition” value was -13% and the Z score amounted to 2.28.
For the molecule `COc1ccc(-c2cc(C(=O)N(C)C3CCS(=O)(=O)CC3)[nH]n2)cc1`, the “% Inhibition” value is on record as -12% and the Z score is listed as 2.18.
For `CC1CCC(NCc2ccc3c(=O)cc[nH]c3c2)C(C)C1` (centres undefined), in that order: -5% and 0.69.
For `CCOc1cc(N2CCC[C@H](n3cc(CO)nn3)C2)nc(C)n1`, in that order: 0% and -0.01.
With `Cc1cc(C)cc(OCc2nc(CN(CCN3CCOCC3)C(=O)C3CCCC3)cs2)c1`, the “% Inhibition” value was -9% and the Z score was 1.31.
As to `Cc1nc(CNC(=O)NCC2(OCCO)CCOCC2)sc1C`, the “% Inhibition” value is recorded as -16% and the Z score was 2.02.
On to `C=C(C)CNC(=O)c1coc(CN2CCN(c3ncccn3)CC2)n1`, for which the “% Inhibition” value came to 14% and the Z score was -1.87.
Regarding `O=C(Nc1ccc(-n2cc(Cl)cn2)cc1)c1ccc(COc2ccc(F)cc2)cc1`, the “% Inhibition” value is 5% and the Z score is listed as -0.67.
`CNC(=O)C1CCN(Cc2ccnc(OC)c2F)CC1`: the “% Inhibition” value is -6% and the Z score stood at 1.18.
`COCCn1c(=O)n([C@H]2CCCN(C(=O)c3ccccc3OC)C2)c2ncccc21`: the “% Inhibition” value was -9% and the Z score was 1.14.
For `CC(C)Cc1ccc([C@H](C)C(=O)N2CCC(O)(C(N)=O)C2)cc1` (some centres undefined), in that order: -21% and 3.55.
In the case of `Nc1nc(CNS(=O)(=O)N2CCCC2)cs1`, the “% Inhibition” value is listed as -17% and the Z score was 1.57.
In the same order, the values of `COc1ccc(CCC(=O)N(CCN2CCCC[C@@H]2C)CCS(=O)(=O)N2CCNCC2)cc1` are 3% and -0.36.
For `Cc1cc(Cn2cc(C(F)(F)F)ccc2=O)on1`, in that order: -4% and 0.51.
In the same order, the values of `O=C(Nc1nccc2cc(Br)ccc12)C1CC12CCOC2` (centres undefined) are -5% and 0.94.
`Cc1ccc(CNC(=O)[C@H]2CCN(c3cnn(Cc4ccccc4)c(=O)c3)C2)o1`: the “% Inhibition” value is -3% and the Z score was determined as 0.39.
In the same order, the values of `C=CCOc1ccc(CN(C[C@H]2CCCO2)C(=O)c2ccc(C)o2)cc1OC` are -8% and 0.79.
For `COc1ccc(CN2C(=O)c3ccccc3[C@H]2c2c(-c3cccc(OC)c3)n(C)c3ccccc23)cc1`, in that order: -1% and 0.12.
For `Cc1nn(C2CCS(=O)(=O)C2)c2c1C(c1cccc(Cl)c1)CC(=O)N2` (centres undefined), in that order: 34% and -3.81.
With `C[C@H]1CCCCN1CC(=O)Nc1sc2c(c1C#N)CCCCC2`, the “% Inhibition” value was -18% and the Z score was determined as 3.45.
For `CN(C)C(=O)N1CCC(Nc2ccc3nc(N(C)C)oc3c2)CC1`, the “% Inhibition” value was 6% and the Z score is -1.01.
Regarding `CC1CCCCC1NC(=O)C1COCC(=O)N1Cc1cccs1` (centres undefined), the “% Inhibition” value is -7% and the Z score is 1.28.
In the same order, the values of `CC(C)(C)OC(=O)N1CC[C@H](NC(=O)Cc2cnn(-c3ccccc3)c2)C(C)(C)C1` are -5% and 0.5.
In the same order, the values of `CN(C)c1nc2cc(NC(=O)N3CCN4CCC3C4)ccc2o1` (centres undefined) are -11% and 1.36.
In the same order, the values of `CCOC(=O)c1cc(-c2ccc(CC)cc2)n(C2CCN(C(=O)COC)CC2)n1` are -3% and 0.35.
With `c1cc2c3c(c1)C(NC1CCOCC1)CC3CCC2` (centres undefined), the “% Inhibition” value was -2% and the Z score is listed as 0.28.
For `O=C([C@@H]1NCc2ncncc21)N1CCc2c(F)cccc2C1`, in that order: -1% and 0.1.
As for `O=C(c1ccco1)N1CCC2(CCN(CCOCc3ccccc3)CC2)CC1`, the “% Inhibition” value is reported as -6% and the Z score is 1.28.
For `COCC(=O)N(Cc1cccc(F)c1)c1ccc(CC(=O)NCCN2CCOCC2)cc1`, the “% Inhibition” value is -8% and the Z score turned out to be 1.45.
For `Cn1nccc1[C@@H]1CN(Cc2noc3c2CC(C)(C)CC3)CCO1`, in that order: 6% and -0.92.
Take `O=C(Nc1ccc([C@H]2OCC(=O)N(Cc3cccnc3)[C@@H]2CO)cc1)C1CCC1`: the “% Inhibition” value was determined as 32% and the Z score is recorded as -3.58.
For `O=C(O)c1cnn(-c2ncc3c(n2)-c2ccccc2CCC3)c1C1CC1`, in that order: -14% and 2.34.
Consider `Cc1onc(N)c1S(=O)(=O)NC1CCC(C(F)(F)F)CC1` (centres undefined), for which the “% Inhibition” value was determined as 30% and the Z score is -3.37.
As to `COc1cccc(-c2nnc(-c3sc4ccccc4c3Cl)o2)c1`, the “% Inhibition” value was -6% and the Z score is on record as 0.99.
